Experimental data reported in patent publication US20240409647A1, “BISPECIFIC BINDING PROTEINS AGAINST ALARMINS AND USES THEREOF” (SINOMAB BIOSCIENCE LIMITED, priority 2022, published 2024).

T1: IL-17RB (Homo sapiens, UniProt Q9NRM6)
T1 construct: purchased R&D systems
T1 sequence (Q9NRM6 18-502): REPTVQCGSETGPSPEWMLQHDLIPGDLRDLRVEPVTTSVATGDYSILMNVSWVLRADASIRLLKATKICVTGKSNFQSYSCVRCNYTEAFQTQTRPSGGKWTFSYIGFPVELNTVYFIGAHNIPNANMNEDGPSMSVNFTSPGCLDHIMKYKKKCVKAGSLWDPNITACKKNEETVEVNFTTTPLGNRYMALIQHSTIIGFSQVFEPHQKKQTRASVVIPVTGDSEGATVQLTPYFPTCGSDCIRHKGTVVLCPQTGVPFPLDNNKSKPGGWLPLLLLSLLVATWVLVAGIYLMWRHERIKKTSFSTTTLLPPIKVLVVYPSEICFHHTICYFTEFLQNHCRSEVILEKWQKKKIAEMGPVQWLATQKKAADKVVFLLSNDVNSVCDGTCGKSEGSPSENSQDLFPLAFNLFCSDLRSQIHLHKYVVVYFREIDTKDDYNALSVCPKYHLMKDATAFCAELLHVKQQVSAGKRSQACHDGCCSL

T2: IL-33 (Homo sapiens, UniProt O95760)
T2 construct: purchased R&D systems
T2 sequence (O95760 95-270): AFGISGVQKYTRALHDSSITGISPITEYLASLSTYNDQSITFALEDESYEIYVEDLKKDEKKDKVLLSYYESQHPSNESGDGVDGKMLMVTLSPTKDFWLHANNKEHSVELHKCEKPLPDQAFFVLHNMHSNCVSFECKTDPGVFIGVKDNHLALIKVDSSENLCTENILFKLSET


How the values were obtained:
IL-17RB = target: T1, IL-17RB; experiment: ELISA, antigen binding specificity of bsBp (IL-17RB); parameters: key: −: no binding; +: weak; ++: moderate; +++: strong binding; N/A refers to no binding affinity; conditions: 33.5 nM; antigen coated at 2 μg/mL
Description: (§1) Binding specificities of bsBp were evaluated by standard ELISA assays. Briefly, ELISA strips were coated with the respective target antigens, including IL17RB, IL-33, or TSLP (R&D systems) at a final concentration of 2 μg/mL. Bispecific antibodies were added at 33.5 nM to ELISA strips coated with the desired antigen. After incubation under room temperature for 2 hours, ELISA strips were washed five times with PBS. […] No result is provided for SM17-human TSLPR as the yield was too low to be detected.

IL-33 [1] = target: T2, IL-33; experiment: ELISA, antigen binding specificity of bsBp (IL-33); parameters: key: −: no binding; +: weak; ++: moderate; +++: strong binding; N/A refers to no binding affinity; conditions: 33.5 nM; antigen coated at 2 μg/mL
Description: as §1

IL-33 [2] = target: T2, IL-33; experiment: Bio-Layer Interferometry (Octet), binding kinetics of bsBp to human IL-33
Description: The binding affinity of bsBp to the targeted alarmins was determined using a bio-Layer Interferometry analysis (Octet ReD96 system, Sartorius). bsBp or SM17 (20 μg/mL) was immobilized on biosensors via binding to anti-human Fab CH1 region; serially diluted human IL33 and TSLP (158.7 nM, 79.4 nM, 39.7 nM) (R&D systems) were added to plot the association and dissociation curve according to the manufacturer's specification. Biosensors immobilized with irrelevant antibody (SM03, anti-human CD22 chimeric IgG1 antibody, SinoMab BioScience Limited, 20 μg/mL) were used as control reference.

Human PBMCs = experiment: CCL8 and IFNγ release from human PBMC incubated with IL-12 and IL-33; assay type: cell-based; parameters: key to Intensity of specific cytokine inhibition, IFNγ / Intensity of specific cytokine inhibition, CCL-8: −: no binding; +: weak; ++: moderate; +++: strong binding; N/A refers to no binding affinity; conditions: 5 μg/ml
Description: Human PBMCs (4×10^5 per group, Ixcells) were incubated with IL-2 (10 unit/mL, PeproTech) and various alarmin/alarmin combinations to mimic the pro-inflammatory cytokines release during allergic diseases. For IL-5 and IL-13 releases, PBMCs were incubated with IL-2 and three alarmins (all 10 ng/ml) for three days. For CCL17 release, PBMC was incubated with TSLP (10 ng/ml) for 1 day. For CCL8 and IFNγ releases, PBMCs were incubated with IL-12 (10 ng/ml, Sino Biological) and IL-33 (10 ng/ml) for 1 day. Cells were pretreated with SM17 (5 μg/ml) or IgG4 isotype control (5 μg/ml) for an hour before the addition of cytokines.
Supernatants were collected and the cytokine concentration were measured by ELISA kits (R&D systems). These established assays were used to test the potency of and SM17 and bsBps. […] Results were expressed in absolute amount in pg/ml.
SM17, three different SM17-anti-IL33 bsBps and three different SM17-anti-TSLP bsBps (all at 5 μg/ml) were added to human PBMC cultures under conditions that shall induce the release of IFNγ, CCL8, CCL17 and IL-5 as described in Example 11 above. The levels of different cytokines and chemotactic factors in supernatant obtained in induced PBMC were evaluated using standard ELISA methods.

[3] = test system: ILC2 population in human PBMC; experiment: ILC2 cell population in human PBMC culture (flow cytometry); assay type: cell-based; parameters: key: −: no inhibition; +: weak; ++: moderate; +++: strong inhibition; conditions: IL-2 (10 unit/mL) and three alarmins (10 ng/ml), 5 days
Description: (§2) While alarmins are known to work in concert to enhance ILC2 and Th2 cell functions such as increase in cell population, steroids such as Dexamethasone (Dex) can negate these effects, resulting in the mitigation of type 2 immune responses [Jia, Yi et al. American Journal Of Respiratory Cell And Molecular Biology, vol. 55, 5 (2016): 675-683]. ILC2 and Th2 cell population can be determined by flow cytometry (BD FACSVerse) following standard procedures known to those skilled in the art.

[4] = test system: Th2 cell population in human PBMC; experiment: Th2 cell population in human PBMC culture (flow cytometry); assay type: cell-based; parameters: key: −: no binding; +: weak; ++: moderate; +++: strong binding; N/A refers to no binding affinity; conditions: IL-2 (10 unit/mL) and three alarmins (10 ng/ml), 5 days
Description: as §2

Normal human DCs = experiment: Dendritic cell potency assay, TSLP-induced CCL17 production; assay type: cell-based; conditions: 5 μg/mL; TSLP 10 ng/mL, 5 days
Description: TSLP from inflamed epithelium promotes maturation of dendritic cells (DCs) to prime Th2 responses via CCL17, which induces chemotaxis of CD4+ T cells to mediate inflammation (Kitajima and Ziegler. 2013. “Cutting Edge: Identification Of The Thymic Stromal Lymphopoietin-Responsive Dendritic Cell Subset Critical For Initiation Of Type 2 Contact Hypersensitivity”. J Immunol 191: 4903-4907; Bleck et al. 2015. “Co-Expression Of Type 2 Immune Targets In Sputum-Derived Epithelial And Dendritic Cells From Asthmatic Subjects”. J Allergy Clin Immunol 136: 619-627.e5). Normal human DCs were obtained from Lonza (Bend, OR). The DCs were cultured in LGM-3 medium (Lonza). TSLP (10 ng/mL) is added into the DC cultures for 5 days in the presence of 5 μg/mL of SM17, IgG4 isotype control (Sino Biological), SM17-TSLPR bsBp (SM17 fused with TSLP receptor extracellular domain) or SM17-anti-TSLP bsBp 2 #. The supernatants are harvested and the levels of CCL17 measured by ELISA following the manufacturer's specification (R&D systems).

| Molecule | Intensity of specific antigen binding, IL-17RB coated on ELISA strips (IL-17RB) | Intensity of specific antigen binding, IL-33 coated on ELISA strips (IL-33 [1]) | Kdis (IL-33 [2]) [s⁻¹] | Ka (IL-33 [2]; bsBp or SM17 immobilized at 20 μg/mL) [M⁻¹ s⁻¹] | CCL8 release, suppression effect as compared to SM17 (in words) (Human PBMCs) | Intensity of specific cytokine inhibition, CCL-8 (Human PBMCs; human PBMC) | Intensity of specific cytokine inhibition, IFNγ (Human PBMCs; human PBMC) | Cell proliferation inhibition, ILC2 [3] | Cell proliferation inhibition, Th2 [4] | TSLP-induced CCL17 production in DCs (in words) (Normal human DCs) |
| --- | --- | --- | --- | --- | --- | --- | --- | --- | --- | --- |
| SM17-anti IL-33 1# bsBp: bispecific binding protein, SM17 IgG fused to anti-IL-33 scFv; HC SEQ ID NO: 63, LC SEQ ID NO: 33 (antibody) heavy: MDLLHKNMKHLWFFLLLVAAPRWVLSQVQLVQSGAEVKKPGASVKVSCKASGYTFISYWMNWVRQAPGQGLEWMGRIDPYDSEIQYNQKFKDRVTMTRDTSISTAYMELSRLRSDDTAVYYCARSGGFDWFAYWGQGTLVTVSSASTKGPSVFPLAPCSRSTSESTAALGCLVKDYFPEPVTVSWNSGALTSGVHTFPAVLQSSGLYSLSSVVTVPSSSLGTKTYTCNVDHKPSNTKVDKRV[sequence of human IgG4 Fc with S228P (EU numbers) not given]GGGSGGGGSGGGGSQVQLMQSGAEVKKPGASVKVSCKASGYTFTSYWMHWVRQAPGQGLEWMGTIYPRNSNTDYNQKFKARVTMTRDTSTSTVYMELSSLRSEDTAVYYCARPLYYYLTSPPTLFWGQGTLVTVSSGGGGSGGGGSGGGGSGGGGSDIQLTQSPSFLSASVGDRVTITCKASQDVGTAVAWYQQKPGKAPKLLIYWASTRHTGVPSRFSGSGSGTEFTLTISSLQPEDFATYYCQQAKTYPFTFGSGTKLEIK light: DIQMTQSPSSLSASVGDRVTITCRASENINSNLAWYQQKPGKAPKLLLYDVTNLADGVPSRFSGSGSGTDYTLTISSLQPEDFATYYCQHFWGPPYTFGGGTKVEIKRTVAAPSVFIFPPSDEQLKSGTASVVCLLNNFYPREAKVQWKVDNALQSGNSQESVTEQDSKDSTYSLSSTLTLSKADYEKHKVYACEVTHQGLSSPVTKSFNRGEC | +++ | +++ | 0.000283 | 9810 | stronger suppression effect | + | ++ | +++ | + | – |
| SM17-hTSLPR: SM17 fused with TSLP receptor extracellular domain; HC SEQ ID NO: 67, LC SEQ ID NO: 33 (antibody) heavy: MDLLHKNMKHLWFFLLLVAAPRWVLSQVQLVQSGAEVKKPGASVKVSCKASGYTFISYWMNWVRQAPGQGLEWMGRIDPYDSEIQYNQKFKDRVTMTRDTSISTAYMELSRLRSDDTAVYYCARSGGFDWFAYWGQGTLVTVSSASTKGPSVFPLAPCSRSTSESTAALGCLVKDYFPEPVTVSWNSGALTSGVHTFPAVLQSSGLYSLSSVVTVPSSSLGTKTYTCNVDHKPSNTKVDKRV[sequence of human IgG4 Fc with S228P (EU numbers) not given]GGGSGGGGSGGGGSQGGAAEGVQIQIIYFNLETVQVTWNASKYSRTNLTFHYRFNGDEAYDQCTNYLLQEGHTSGCLLDAEQRDDILYFSIRNGTHPVFTASRWMVYYLKPSSPKHVRFSWHQDAVTVTCSDLSYGDLLYEVQYRSPFDTEWQSKQENTCNVTIEGLDAEKCYSFWVRVKAMEDVYGPDTYPSDWSEVTCWQRGEIRDACAETPTPPKPKLSK light: DIQMTQSPSSLSASVGDRVTITCRASENINSNLAWYQQKPGKAPKLLLYDVTNLADGVPSRFSGSGSGTDYTLTISSLQPEDFATYYCQHFWGPPYTFGGGTKVEIKRTVAAPSVFIFPPSDEQLKSGTASVVCLLNNFYPREAKVQWKVDNALQSGNSQESVTEQDSKDSTYSLSSTLTLSKADYEKHKVYACEVTHQGLSSPVTKSFNRGEC | – | – | – | – | – | – | – | – | – | efficient in suppressing TSLP-induced CCL17 production |
